# Source: the supplement of paper PMC3334620
# The full ranking holds about 33,000 sequences; the median of “E-score (-0.5 to 0.5)” is about -0.011, and the highest 2% start at about 0.28. Some of the results follow.
# Molecular target: T1, Gcr1 (UniProt P07261)
# T1 sequence: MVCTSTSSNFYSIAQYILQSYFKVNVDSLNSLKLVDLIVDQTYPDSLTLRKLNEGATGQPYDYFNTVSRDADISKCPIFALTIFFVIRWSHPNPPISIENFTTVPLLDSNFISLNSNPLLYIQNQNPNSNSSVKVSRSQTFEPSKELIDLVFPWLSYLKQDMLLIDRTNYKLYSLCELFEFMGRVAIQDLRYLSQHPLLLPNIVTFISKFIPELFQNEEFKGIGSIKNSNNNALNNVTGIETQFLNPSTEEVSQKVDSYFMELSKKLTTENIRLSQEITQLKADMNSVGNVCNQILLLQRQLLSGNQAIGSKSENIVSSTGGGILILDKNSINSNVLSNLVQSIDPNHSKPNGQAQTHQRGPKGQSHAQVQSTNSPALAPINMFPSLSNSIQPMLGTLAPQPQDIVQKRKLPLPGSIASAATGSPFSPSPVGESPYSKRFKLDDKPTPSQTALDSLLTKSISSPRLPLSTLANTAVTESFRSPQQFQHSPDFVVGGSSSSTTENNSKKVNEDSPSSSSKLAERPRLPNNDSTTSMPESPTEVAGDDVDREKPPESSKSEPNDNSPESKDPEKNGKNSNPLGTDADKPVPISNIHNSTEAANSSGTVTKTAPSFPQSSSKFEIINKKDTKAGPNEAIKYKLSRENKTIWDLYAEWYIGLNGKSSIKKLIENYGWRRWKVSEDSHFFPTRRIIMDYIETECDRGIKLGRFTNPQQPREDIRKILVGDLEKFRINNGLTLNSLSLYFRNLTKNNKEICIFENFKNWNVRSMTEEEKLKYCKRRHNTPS
# Assay: PBM E-score (8-mer binding enrichment) (E-score (-0.5 to 0.5)); higher = stronger / more preferred TF binding; most listed sequences are background and not binding sites
# Settings: protein concentration: 100 nM; construct: GST-full length
# Method in brief: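 Masliner-normalised scans of fluorescent anti-GST signal were the basis for scoring. That signal came from GST-tagged yeast transcription factors applied at about 100-200 nM to double-stranded universal all-10-mer Agilent arrays on fresh or once-stripped slides. Each ungapped eight-base word, pooled with its reverse complement, received an E-score from the Universal PBM Analysis Suite.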
row,Sequence,PBM E-score
1,TAGCCGGA,0.00917
2,GGGCAAAC,-0.336
3,CCCAGAAA,0.283
4,AGTTGTGG,0.136
5,ACCAAGCC,-0.147
6,AAGGCTAC,-0.109
7,CGTTCTGC,-0.122
8,ACGTGTGG,-0.176
9,CTCGGCAC,-0.0534
10,CCAAGCTA,-0.0611
11,AAATAGAG,-0.031
12,CGGGAACA,0.126
13,GAAGAGTA,-0.0196
14,AACGACAG,0.022
15,GACGCCAA,0.2
16,CCAAAATA,0.204
17,ATGCGAAG,0.223
18,ATACTGAG,0.134
19,CATGTCAC,0.0522
20,TCCCCCGA,-0.0585
21,AAAGGTAC,0.137
22,AATCGATG,-0.0944
23,ATTAGAAG,0.2
24,CAACAGAA,0.031

row,Sequence,PBM E-score
1,CCAGGAGG,-0.069
2,CAGGCCAG,-0.207
3,CAGACAAG,-0.154
4,GATGGTTA,-0.0423
5,AAATCGAA,-0.0161
6,ATCCGAGG,-0.112
7,AGGTTGCA,0.125
8,CGGGGTTC,0.13
9,CAAATACG,0.165
10,AACGAATG,0.0444
11,CAGTATAC,0.0383
12,AAAGGGAA,0.102
13,CTAAATGC,0.093
14,GGGGGAAA,-0.0544
15,CTGGTGGA,-0.00688
16,GGCGCCCA,0.398
17,CCGTAAAG,0.0627
18,AAATCATG,-0.0472
19,GAAAATAC,-0.0193
20,CCTTGTGC,-0.0712
21,CGCCGAGC,-0.138
22,CGTAGACA,-0.152
23,TGCCCCAA,-0.00246
24,GAGGTTAC,-0.105

row,Sequence,PBM E-score
1,ATTCAGCA,-0.212
2,CTTTTCAA,0.0295
3,GGAGCCCC,0.265
4,CAAAGAGC,-0.0142
5,ACCGCGTA,-0.162
6,GCTACTCA,0.0222
7,ATACAGGA,0.308
8,AACGATCT,-0.147
9,ACCATCGG,-0.00354
10,AGCGCACT,-0.194
11,CCAACGGA,0.0308
12,CCGGTCAC,0.0414
13,AGAAACTC,-0.149
14,CTCAACTC,0.112
15,GCATAGAC,-0.15
16,AGAAACAT,0.113
17,ACGTTCGG,-0.0346
18,GCACGAGC,0.014
19,ACTGTTAG,-0.15
20,AGTCTACC,-0.0451
21,GCTCCGCC,0.0324
22,AGGGACCA,0.00709
23,AGCGCGCC,0.16
24,ATGAGCAA,-0.0522

row,Sequence,PBM E-score
1,AAGACGAT,0.0896
2,GCGTACTA,-0.16
3,ACAAGTGA,-0.145
4,CGAAGTGA,0.0729
5,AGGACAGC,-0.262
6,GACACCCC,-0.0371
7,CACTAACC,0.0105
8,TAACCGAA,0.0338
9,CGCTTAAG,-0.0441
10,ACGGACTA,-0.163
11,GGTGAATA,0.0632
12,AAACAGAC,0.0356
13,CCGTCGCC,-0.0263
14,ATCTGATC,-0.0261
15,AATACTAA,0.183
16,CCAAGAAA,0.0208
17,TGCACGCA,-0.156
18,CATGCGTA,-0.0942
19,AGGGCATC,0.129
20,AACGTTCA,-0.189
21,ATCAAAAT,-0.00678
22,GGTAGGAA,0.116
